The supplement of paper PMC8674133
Numbering of substitutions follows the chain as printed. Recombinant human monoclonal antibodies (heavy:light variable regions). ELISA EC50 on the named antigen, from 10 µg/ml down; IC50 / IC90 against spike pseudovirus on 293T-ACE2 cells, 48 h; lower = stronger. Calls: IC50 above 1,000 ng/ml = non-neutralizing; EC50 above 2,000 ng/ml = non-binder. The source prints 1000 for neutralization that was not reached; it is given as >1000 ng/ml. A few antibodies were first reported in earlier work of the same group.

B1: C1419 (protein)
chain 1: QVQLQESGPGLVKPSQTLSLTCTVSGGSISGGGYYWTWIRQHPGKGLEWIGHIYYSENTYYNPSLKSRVSISVDTSKNQFSLKLSSVTAADTAVYYCASGRWLPEFDYWGQGTLVTVSS
chain 2: EIVMTQSPATLSVSPGERATLSCRASQSVSSNLAWYQQKPGQAPRLLIYGASTRATGIPARFSGSGSGTEFTLTISSLQSEDFAVYYCQQYNNWPRGFTFGPGTKVDIK
B2: C1420 (protein)
chain 1: QLQLQESGPGLVKPSETLSLTCTVSGGSISRSSYYWGWIRQPPGKGLEWIGSMYYSGSTYYNPSLKSRVTISVDTSKNQFSLKLSSVTAADTAVYYCARSLLRWNGAFDIWGQGTMVTVSS
chain 2: SYELTQPPSVSVAPGKTARITCGVNNIGSYSVHWYQQNPGQAPVLVIYYDSDRPSGIPERFSGSNSGNTATLTISRVEAGDEADYYCQVWDNSSDHPYVFGTGTKVTVL
B3: C2418 (protein)
chain 1: QVQLQESGPGLVKPSETLSLTCTVSGGSVSSDNYYWSWIRQSPGKGLEWIGYIFYSGSTNYNPSLKSRVTMSVDTSKNQFSLKLNSVTAADTAVYFCARWWRVLPFSSFDYWGQGSLVTVSS
chain 2: QSALTQPASVSGSPGQSITISCTGTSSDIGSYNLVSWYQQHPGKAPKLIIYEGSTRPSGVSDRFSGSKSGNTASLTISGLQAEDEAVYYCCSYMGRSMFEVFGGGTKLTVL
B4: C1421 (protein)
chain 1: QVQLQQWGAGLLKPSETLSLTCAVYGGSFSGYYWSWIRQPPGKGLEWIGEINHSGSTDYNPSLKSRVTISVDTSKNQFSLKVSSVTAADTAVYYCARDDGGFRELFLDYWGQGTLVTVSS
chain 2: QSVLTQPPSASGTPGQRVTISCSGSSSNIGTNYVYWYQQLPGTAPKLLIYRNNQRPSGVPDRFSGSKSGTSASLAISGLRSEDEADYYCAAWDDSLRGVFGGGTKLTVL
B5: C1422 (protein)
chain 1: QVQLVESGGGVVQPGRSLRLSCAASGFTFSSYGMNWVRQAPGKGLEWVALISYDGSNKYYADSVKGRFTISRDNSKNTLYLQMNSLRAEDTAVYYCAKGGLYSSSSLDDYWGQGTLVTVSS
chain 2: DIQMTQSPSSLSASVGDRVTITCQASQDISNYLNWYQQKPGKAPKLLIYDASNLETGVPSRFSGSGSGTDFTFTISSLQPEDIATYYCQQYDNLLLTFGGGTKVEIK
B6: C1424 (protein)
chain 1: QVQLVESGGGVVQPGRSLRLSCAASGFTFSHYGMHWVRQAPGKGLEWVAVILYDGSDKYYADSVKGRFTISRDNPKNTLYLQMNSLRAEDTAVYYCAKQAGPYCSGGNCYGGTLDYWGQGSLVTVSS
chain 2: B5 chain 2 with K42Q, E81D, L95P, L96P, T97A, G100P, E105D
B7: C1167 (protein)
chain 1: QVQLVESGGGVVQPGRSLRLSCAASGFTFRNYAMHWVRQAPGKGLEWVALILYDGSNEYYADSVKGRFTISRDNSKNTLYLQMNSLRAEDTAVYYCAKTLYSYAYDQYFFDYWGQGTLVTVSS
chain 2: IQLTQSPASLSASVGDRVTITCRANQGIRSALAWYQKKPGKAPKLLISEASNLEGGVPSRFSGSGSGTDFTLTISSLQPEDFATYYCQQFNSYPPLTFGGGTKVEIK
B8: C1169 (protein)
chain 1: QVQMVQSGAEVKKPGGSVKVSCKASGDTFSSHYVHWVRQAPGQGLEWMGIMNPSGGSTTYGQKFQGRVTMTRDTTTSTLSMELSRLRSDDTAVYYCARDSAFIPHMDYGLDVWGQGTTVTVSS
chain 2: QSALTQPPSASGSPGQSVTISCTGTSSDVGGYNYVSWYQQNPGKAPKLMIYEVSERPSGVPDRFSGSKSGNTASLTVSGLQVEDEADYYCSSYAASNNLIFGGGTKLTVL
B9: C1170 (protein)
chain 1: QVQLVQSGAEVKKPGASVKVSCKASGYTFSSYFIHWVRQAPGQGLEWMGIINPGGASRSSAQKFQGRVTMTSDTSTSTVYMELSSLRSEDTAVYYCAREHGGNSYFDQWGQGTLVTVSS
chain 2: DIQLTQSPSFLSASVGDRVTITCRASQGISGYLAWYQQKPGEAPKVLIYAASTLQSGVPSRFSGSGSGTEFTLTISSLQPEDFATYYCQHLNNYPVAFGQGTKVEIK
B10: C1171 (protein)
chain 1: EVQLVESGGGFVKPGGSLRLSCAASGFSLNDAWMSWVRQAPGKGPEWVGHIKTTIDGGTSDYAASVIGRFTISRDDSKNRLYLHMNSLKTEDTAVYFCIASDLLRYYSYGIDVWGQGTTVTVSS
chain 2: DIQMTQSPSTLSASVGDRVTITCRASQSISNWLAWYQQKPGQAPKLLIYKTSNLKSGVPSRFSGSGSGTEFTLTIRSLQPDDFATYYCQQYDSYSWTFGQGTKVEIK
B11: C1172 (protein)
chain 1: EVQLVESGGGLVQPGGSLRLSCAASGFTFSRNWMSWVRQAPGKGLEWVANINQDGSAKFYLDSVKGRFTISSDHAKNTLFLQMNSLRAEDTALYYCARPRGGWYMGLDSWGQGTLVTVSS
chain 2: NFMLTQPHSVSESPGKTVTISCTGSSGSIAVNYVQWYQQRPGSAPTTVIYEDNQRPSGVPDRFSGSIDSSSNSASLTISGLKTEDEADYYCQTYDGSNHWVFGGGTKLTVL
B12: C1173 (protein)
chain 1: QLQLQESGPGLVKPSETLSLTCTVSGGSISSNSYYWGWIRQPPGKGLEWIGSIYYSGSTYYNPSVMSRVTISVDTSKNQFSLNLRSVSAADTAIYYCARRRRWGFGDGFDIWGHGTMVTVSS
chain 2: QSALTQPRSVSGSPGQSVTIACTGTSSDVGGYDYVSWYQQHPGKAPKLMIYDVNKRPSGVPDRFSGSKSGNTASLTISGLQTEDEADYYCCSYAGSYTTLFGGGTKLTVL
B13: C2420 (protein)
chain 1: QVQLQESGPGLVKPSETLSLSCTVSGGSISTYFWTWIRQPPGKGLEWIGYIYYSGSTNYSPSLQSRVTILVDTSKNQFSLKLTSVTAADTAVYYCARGTVIKVGRTSYSYGMDVWGQGTTVTVSS
chain 2: B2 chain 2 with K16Q, V24G, N38K, Y48F, N92T, S93N, P97L, Y98V, T102G, V106L
B14: C1176 (protein)
chain 1: QVQLQESGPGLVKPSQTLSLTCTVSGGSMNSGDYYWSWIRQHPGKGLEWIGYIFYSGSTYHNPSLNSRPTISVDTSKNQFSLKLSSVSAADTAVYYCARVPRHYGDNVHHAFDIWGQGTMVTVSS
chain 2: QSALTQPASVSGSPGQSITISCTGTSSDVGSYNLVSWYQQHPGKAPKLMIYEDNRRPSGVSNRFSGSKSGNTASLTISGLQAEDEADYYCCTYAGSTSVLFGGGTKLTVL
B15: C1177 (protein)
chain 1: QVQLVESGGGVVQPGRSLRLSCSASGFTFRHYGMHWVRQAPGKGLEWVAVTSYDGSNQYYSDSVKGRITISRDNSKNTLYLQMNSLRVEDTAMYYCAKGGYSYAYPETFFDYWGQGTLVTVSS
chain 2: SYELTQPPSVSVAPGQTARITCEENNIGSKSVHWYQQTPGQAPVLVVSDNSDRPSGIPDRFSGSNSGNTATLTIGRVEAGDEADYYCQVWDSGSDHPGVFGGGTKLTVL
B16: C1178 (protein)
chain 1: QVQLVQSGAEVKKPGASVKVSCKASGSTFTSHYMHWVRQAPGQGLEWMGIINPSGGSTRYAQKFQGRVSLTSDTSTSTVHMELSSLRSEDTAVYYCARDAGFIVVVTGGFDYWGQGTLVTVSS
chain 2: QSALTQPASVSGSPGQSITISCTGTSSDIGGYNYVSWYQQHPGKGPKLMIYDVSNRPSGLSNRFSGSKSGNTASLTISGLQAEDEADYYCSSYTSSTTVVFGGGTKVTVL

Assays:
[1] = biological target: SARS-CoV-2 Wuhan-Hu-1 spike pseudovirus; assay: pseudovirus neutralization IC50; higher = weaker neutralization
Procedure: (§1)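 Single-round luciferase reporter pseudovirus mixed with antibody dilutions and put on 293T-ACE2 cells for 48 h; signal relative to no-antibody wells, four-parameter fit.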

[2] = biological target: SARS-CoV-2 Wuhan-Hu-1 spike pseudovirus; assay: pseudovirus neutralization IC90; higher = weaker neutralization
Procedure: as §1

[3] = biological target: SARS-CoV-2 Wuhan-Hu-1 spike receptor-binding domain; assay: ELISA binding EC50; higher = weaker binding; ELISA of recombinant human antibody on coated antigen, from 10 µg/ml in fourfold dilutions; four-parameter fit.

Binder	pseudovirus neutralization IC50 [1] [ng/mL]	pseudovirus neutralization IC90 [2] [ng/mL]	ELISA binding EC50 [3] [ng/mL]
B1	> 1000	> 1000	2.85
B2	> 1000	> 1000	3.42
B3	> 1000	> 1000	1.49
B4	507	> 1000	3.3
B5	950	> 1000	3.42
B6	> 1000	> 1000	3.15
B7	> 1000	> 1000	1.76
B8	> 1000	> 1000	2.49
B9	23.8	64.4	2.13
B10	112	> 1000	2.23
B11	66.3	> 1000	2.38
B12	> 1000	> 1000	3.84
B13	> 1000	> 1000	2.19
B14	> 1000	> 1000	2.52
B15	904	> 1000	3.77
B16	> 1000	> 1000	8.33
